Results reported in the supplement of paper PMC11741623.
The other results are listed elsewhere or left out. Interaction screen of human proteins with wild-type SARS-CoV-2 proteins by split-DHFR complementation in yeast, 1 µg/mL methotrexate. Value = fitness of the pair (three or more lineages) minus that of the viral protein without a human partner, on a scale set by negative (0) and fused positive (1) controls, mean of up to three cultures; higher = more likely to interact. Active = false discovery rate below 0.05 (one-sided t-test) in at least one culture. Nearly all pairs are not hits, and differences among them are mostly noise (correlation between cultures about 0.3); most hits were seen in one culture only. Human sequences are the Swiss-Prot entries looked up by gene name; the clone may be another isoform. NSP2 values were corrected by the authors for a growth advantage. Listed are human proteins with a hit and a random twelfth of the others.

B1: KCNJ12, Q14500 (protein)
chain: MTAASRANPYSIVSSEEDGLHLVTMSGANGFGNGKVHTRRRCRNRFVKKNGQCNIEFANMDEKSQRYLADMFTTCVDIRWRYMLLIFSLAFLASWLLFGIIFWVIAVAHGDLEPAEGRGRTPCVMQVHGFMAAFLFSIETQTTIGYGLRCVTEECPVAVFMVVAQSIVGCIIDSFMIGAIMAKMARPKKRAQTLLFSHNAVVALRDGKLCLMWRVGNLRKSHIVEAHVRAQLIKPRVTEEGEYIPLDQIDIDVGFDKGLDRIFLVSPITILHEIDEASPLFGISRQDLETDDFEIVVILEGMVEATAMTTQARSSYLANEILWGHRFEPVLFEEKNQYKIDYSHFHKTYEVPSTPRCSAKDLVENKFLLPSANSFCYENELAFLSRDEEDEADGDQDGRSRDGLSPQARHDFDRLQAGGGVLEQRPYRRESEI
B2: CNN1, P51911 (protein)
chain: MSSAHFNRGPAYGLSAEVKNKLAQKYDHQREQELREWIEGVTGRRIGNNFMDGLKDGIILCEFINKLQPGSVKKINESTQNWHQLENIGNFIKAITKYGVKPHDIFEANDLFENTNHTQVQSTLLALASMAKTKGNKVNVGVKYAEKQERKFEPGKLREGRNIIGLQMGTNKFASQQGMTAYGTRRHLYDPKLGTDQPLDQATISLQMGTNKGASQAGMTAPGTKRQIFEPGLGMEHCDTLNVSLQMGSNKGASQRGMTVYGLPRQVYDPKYCLTPEYPELGEPAHNHHAHNYYNSA
B3: GATSL3, Q8WTX7 (protein)
chain: MELHILEHRVRVLSVARPGLWLYTHPLIKLLFLPRRSRCKFFSLTETPEDYTLMVDEEGFKELPPSEFLQVAEATWLVLNVSSHSGAAVQAAGVTKIARSVIAPLAEHHVSVLMLSTYQTDFILVREQDLSVVIHTLAQEFDIYREVGGEPVPVTRDDSSNGFPRTQHGPSPTVHPIQSPQNRFCVLTLDPETLPAIATTLIDVLFYSHSTPKEAASSSPEPSSITFFAFSLIEGYISIVMDAETQKKFPSDLLLTSSSGELWRMVRIGGQPLGFDECGIVAQIAGPLAAADISAYYISTFNFDHALVPEDGIGSVIEVLQRRQEGLAS
B4: NCF2, P19878 (protein)
chain: MSLVEAISLWNEGVLAADKKDWKGALDAFSAVQDPHSRICFNIGCMYTILKNMTEAEKAFTRSINRDKHLAVAYFQRGMLYYQTEKYDLAIKDLKEALIQLRGNQLIDYKILGLQFKLFACEVLYNIAFMYAKKEEWKKAEEQLALATSMKSEPRHSKIDKAMECVWKQKLYEPVVIPVGKLFRPNERQVAQLAKKDYLGKATVVASVVDQDSFSGFAPLQPQAAEPPPRPKTPEIFRALEGEAHRVLFGFVPETKEELQVMPGNIVFVLKKGNDNWATVMFNGQKGLVPCNYLEPVELRIHPQQQPQEESSPQSDIPAPPSSKAPGRPQLSPGQKQKEEPKEVKLSVPMPYTLKVHYKYTVVMKTQPGLPYSQVRDMVSKKLELRLEHTKLSYRPRDSNELVPLSEDSMKDAWGQVKNYCLTLWCENTVGDQGFPDEPKESEKADANNQTTEPQLKKGSQVEALFSYEATQPEDLEFQEGDIILVLSKVNEEWLEGECKGKVGIFPKVFVEDCATTDLESTRREV
B5: KDELR1, P24390 (protein)
chain: MNLFRFLGDLSHLLAIILLLLKIWKSRSCAGISGKSQVLFAVVFTARYLDLFTNYISLYNTCMKVVYIACSFTTVWLIYSKFKATYDGNHDTFRVEFLVVPTAILAFLVNHDFTPLEILWTFSIYLESVAILPQLFMVSKTGEAETITSHYLFALGVYRTLYLFNWIWRYHFEGFFDLIAIVAGLVQTVLYCDFFYLYITKVLKGKKLSLPA

What was measured:
Experiment in all cases: yeast fitness gain over the viral ORF with no human partner (scaled fitness); higher = more likely to interact
[1] = target: SARS-CoV-2 E
Description: (§1)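 Split mouse DHFR complementation in pooled diploid yeast: human ORFeome clones carry one fragment and viral ORFs the other; barcoded lineages compete in 1 µg/mL methotrexate and fitness is read by barcode sequencing in up to three cultures.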

[2] = target: SARS-CoV-2 M
Description: as §1

[3] = target: SARS-CoV-2 N
Description: as §1

[4] = target: SARS-CoV-2 NSP1
Description: as §1

[5] = target: SARS-CoV-2 NSP10
Description: as §1

[6] = target: SARS-CoV-2 NSP12
Description: as §1

[7] = target: SARS-CoV-2 NSP13
Description: as §1

[8] = target: SARS-CoV-2 NSP14
Description: as §1

[9] = target: SARS-CoV-2 NSP15
Description: as §1

[10] = target: SARS-CoV-2 NSP16
Description: as §1

[11] = target: SARS-CoV-2 NSP2
Description: as §1

[12] = target: SARS-CoV-2 NSP4
Description: as §1

[13] = target: SARS-CoV-2 NSP5
Description: as §1

[14] = target: SARS-CoV-2 NSP6
Description: as §1

[15] = target: SARS-CoV-2 NSP7
Description: as §1

[16] = target: SARS-CoV-2 NSP8
Description: as §1

[17] = target: SARS-CoV-2 NSP9
Description: as §1

[18] = target: SARS-CoV-2 ORF10
Description: as §1

[19] = target: SARS-CoV-2 ORF3A
Description: as §1

[20] = target: SARS-CoV-2 ORF3B
Description: as §1

[21] = target: SARS-CoV-2 ORF6
Description: as §1

[22] = target: SARS-CoV-2 ORF7A
Description: as §1

[23] = target: SARS-CoV-2 ORF7B
Description: as §1

[24] = target: SARS-CoV-2 ORF8
Description: as §1

[25] = target: SARS-CoV-2 ORF9B
Description: as §1

[26] = target: SARS-CoV-2 ORF9Bwu (the 73-codon ORF)
Description: as §1

[27] = target: SARS-CoV-2 S
Description: as §1

| Binder | yeast fitness gain [1] | yeast fitness gain [2] | yeast fitness gain [3] | yeast fitness gain [4] | yeast fitness gain [5] | yeast fitness gain [6] | yeast fitness gain [7] | yeast fitness gain [8] | yeast fitness gain [9] | yeast fitness gain [10] | yeast fitness gain [11] | yeast fitness gain [12] | yeast fitness gain [13] | yeast fitness gain [14] | yeast fitness gain [15] | yeast fitness gain [16] | yeast fitness gain [17] | yeast fitness gain [18] | yeast fitness gain [19] | yeast fitness gain [20] | yeast fitness gain [21] | yeast fitness gain [22] | yeast fitness gain [23] | yeast fitness gain [24] | yeast fitness gain [25] | yeast fitness gain [26] | yeast fitness gain [27] |
| --- | --- | --- | --- | --- | --- | --- | --- | --- | --- | --- | --- | --- | --- | --- | --- | --- | --- | --- | --- | --- | --- | --- | --- | --- | --- | --- | --- |
| B1 | inactive: 0.0497 | inactive: 0.0682 | inactive: -0.0482 | inactive: -0.0629 | inactive: 0.0209 | inactive: 0.000294 | inactive: -0.0372 | inactive: 0.128 | inactive: -0.0597 | inactive: -0.0504 | inactive: -0.0183 | inactive: 0.0428 | inactive: -0.0126 | inactive: 0.0161 | inactive: -0.041 | inactive: 0.000856 | inactive: 0.0277 | inactive: -0.0223 | inactive: 0.0237 | inactive: 0.053 | inactive: 0.0184 | inactive: -0.0321 | inactive: 0.0694 | inactive: 0.0479 | inactive: 0.0663 | inactive: -0.0598 | inactive: -0.0374 |
| B2 | inactive: 0.0941 | inactive: 0.0401 | inactive: -0.0344 | inactive: -0.0521 | inactive: -0.103 | inactive: -0.0253 | inactive: -0.00888 | – | inactive: 0.0216 | inactive: 0.117 | inactive: -0.0511 | inactive: -0.433 | inactive: 0.0593 | inactive: 0.0464 | inactive: -0.141 | inactive: 0.0429 | inactive: -0.00206 | inactive: 0.049 | inactive: -0.0807 | inactive: -0.0653 | inactive: -0.0087 | inactive: -0.069 | inactive: 0.0713 | inactive: 0.0385 | inactive: -0.0724 | inactive: 0.043 | inactive: -0.00564 |
| B3 | inactive: 0.0365 | inactive: 0.0265 | inactive: 0.0711 | inactive: 0.0626 | inactive: 0.0415 | inactive: 0.0164 | inactive: 0.00548 | inactive: -0.196 | inactive: -0.087 | inactive: -0.166 | inactive: -0.077 | inactive: 0.0141 | inactive: 0.0562 | inactive: 0.037 | inactive: 0.0559 | inactive: -0.0291 | inactive: -0.0118 | inactive: 0.0311 | inactive: -0.0109 | inactive: -0.0465 | inactive: 0.0165 | inactive: -0.00861 | inactive: -0.0743 | inactive: -0.00564 | inactive: 0.0298 | inactive: -0.000125 | inactive: 0.0213 |
| B4 | inactive: -0.0364 | – | – | – | inactive: -0.00683 | inactive: -0.0104 | inactive: 0.0463 | – | inactive: -0.16 | – | active: 0.626 | – | inactive: -0.0209 | – | inactive: -0.325 | inactive: -0.046 | – | inactive: -0.0167 | inactive: -0.172 | inactive: -0.0877 | inactive: -0.0271 | inactive: -0.606 | – | – | inactive: -0.0421 | inactive: -0.108 | inactive: -0.133 |
| B5 | inactive: 0.14 | – | inactive: 0.094 | – | – | – | – | – | inactive: 0.0312 | – | – | – | – | inactive: -0.0625 | – | – | inactive: -0.133 | – | inactive: -0.104 | – | – | – | – | – | – | – | – |
